{"source": "the supplement of paper PMC8728848", "test_in_all_cases": "glycan array binding signal (z-score within array); higher = stronger binding", "conditions_in_all_cases": "glycan notation: IUPAC condensed, linker removed", "key": {"[1]": {"biological_target": "Neu5Ac(a2-6)Gal(b1-4)GlcNAc(b1-3)Gal(b1-4)GlcNAc(b1-3)Gal(b1-4)GlcNAc(b1-2)Man(a1-3)[Neu5Ac(a2-6)Gal(b1-4)GlcNAc(b1-3)Gal(b1-4)GlcNAc(b1-3)Gal(b1-4)GlcNAc(b1-2)Man(a1-6)]GalNAc", "outline": "(§1)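 Columns mapping to the same glycan were averaged after glycan names were converted to IUPAC-condensed notation. The data come from 3228 arrays in the Consortium for Functional Glycomics database, limited to those with an available protein sequence. Binding is reported as a within-array Z-score averaged across arrays of one protein sequence and across linkers.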"}, "[2]": {"biological_target": "Neu5Ac(a2-6)Gal(b1-4)GlcNAc(b1-3)Gal(b1-4)GlcNAc(b1-3)GalNAc", "outline": "as §1"}, "[3]": {"biological_target": "Neu5Ac(a2-6)Gal(b1-4)GlcNAc(b1-3)Gal(b1-4)GlcNAc(b1-3)[Neu5Ac(a2-6)Gal(b1-4)GlcNAc(b1-3)Gal(b1-4)GlcNAc(b1-6)]GalNAc", "outline": "as §1"}, "[4]": {"biological_target": "Neu5Ac(a2-6)Gal(b1-4)GlcNAc(b1-3)Gal(b1-4)GlcNAc(b1-6)[Gal(b1-3)]GalNAc", "outline": "as §1"}, "[5]": {"biological_target": "Neu5Ac(a2-6)Gal(b1-4)GlcNAc(b1-3)Gal(b1-4)[Fuc(a1-3)]GlcNAc(b1-3)Gal(b1-4)[Fuc(a1-3)]GlcNAc", "outline": "as §1"}, "[6]": {"biological_target": "Neu5Ac(a2-6)Gal(b1-4)GlcNAc(b1-3)GalNAc", "outline": "as §1"}, "[7]": {"biological_target": "Neu5Ac(a2-6)Gal(b1-4)GlcNAc(b1-3)[Neu5Ac(a2-6)Gal(b1-4)GlcNAc(b1-6)]GalNAc", "outline": "as §1"}, "[8]": {"biological_target": "Neu5Ac(a2-6)Gal(b1-4)GlcNAc(b1-6)GalNAc", "outline": "as §1"}, "[9]": {"biological_target": "Neu5Ac(a2-6)Gal(b1-4)GlcNAc(b1-6)[Gal(b1-3)GlcNAc(b1-3)]Gal(b1-4)Glc", "outline": "as §1"}, "[10]": {"biological_target": "Neu5Ac(a2-6)Gal(b1-4)GlcNAc(b1-6)[Gal(b1-3)]GalNAc", "outline": "as §1"}, "[11]": {"biological_target": "Neu5Ac(a2-6)Gal(b1-4)GlcNAc6S", "outline": "as §1"}, "Neu5Ac(a2-6)GalNAc": {"biological_target": "Neu5Ac(a2-6)GalNAc", "outline": "as §1"}, "[12]": {"biological_target": "Neu5Ac(a2-6)GalNAc(b1-4)GlcNAc", "outline": "as §1"}, "[13]": {"biological_target": "Neu5Ac(a2-6)GalNAc(b1-4)GlcNAc6S", "outline": "as §1"}, "[14]": {"biological_target": "Neu5Ac(a2-6)GlcNAc(b1-4)GlcNAc", "outline": "as §1"}, "[15]": {"biological_target": "Neu5Ac(a2-6)GlcNAc(b1-4)GlcNAc(b1-4)GlcNAc", "outline": "as §1"}, "Neu5Ac(a2-8)Neu5Ac": {"biological_target": "Neu5Ac(a2-8)Neu5Ac", "outline": "as §1"}, "[16]": {"biological_target": "Neu5Ac(a2-8)Neu5Ac(a2-3)Gal(b1-3)GalNAc(b1-4)[Neu5Ac(a2-3)]Gal(b1-4)Glc", "outline": "as §1"}, "[17]": {"biological_target": "Neu5Ac(a2-8)Neu5Ac(a2-3)Gal(b1-3)GalNAc(b1-4)[Neu5Ac(a2-8)Neu5Ac(a2-3)]Gal(b1-4)Glc", "outline": "as §1"}, "[18]": {"biological_target": "Neu5Ac(a2-8)Neu5Ac(a2-3)Gal(b1-4)Glc", "outline": "as §1"}, "[19]": {"biological_target": "Neu5Ac(a2-8)Neu5Ac(a2-3)Gal(b1-4)GlcNAc", "outline": "as §1"}, "[20]": {"biological_target": "Neu5Ac(a2-8)Neu5Ac(a2-3)[Gal(b1-3)GalNAc(b1-4)]Gal(b1-4)Glc", "outline": "as §1"}, "[21]": {"biological_target": "Neu5Ac(a2-8)Neu5Ac(a2-3)[GalNAc(b1-4)]Gal(b1-4)Glc", "outline": "as §1"}}, "note": "The other results are listed elsewhere or left out."}
{"binder": "PkBDPgamma (Plasmodium knowlesi) (protein) SAINQIFLQNNVMDKCNDKRKRGERDWDCPTEKDVCIPDRRYQLCMMEITNLVDTDTHFHSDIIFRKSYSRRRLIYDVGGRGDLLLKKYNNVYSEDLCKDIKWSLQDFGDIIMGTDMEGIGYSLVVQNNLRSIFGTGTSAELDRKKWWNDHKKDIWKAMILSVKEKNRYSAWNCKEDVQIKVEPQIYRWIREWGRDYMSEFREQRRKLNEKCEDKLYYSTMLICTLPPCNNACKSYDEWITGKKKQWDVLSTKFSSVKKAQKIETENIARAYDILKQELNGFNEVTFENEINKRDKLYNYFCVCIVQEARKNTQENVKNVGSGVESKAPSSNPINEAVKSSSGEGKVQEDSAHRSVNEGEGKSSTNEADPGSQPGAAASGGGSGGGTGGGVDLAPQMLRELQETNAALQDVRELLRQQVKEITFLKNTVMECDACGGPLDRNLPPLAPLGPTGGWSHPQFEK", "values": [{"measurement": "glycan array binding signal (z-score)", "setting": "[1]", "result": 0.405}, {"measurement": "glycan array binding signal (z-score)", "setting": "[2]", "result": -0.302}, {"measurement": "glycan array binding signal (z-score)", "setting": "[3]", "result": 0.922}, {"measurement": "glycan array binding signal (z-score)", "setting": "[4]", "result": -0.108}, {"measurement": "glycan array binding signal (z-score)", "setting": "[5]", "result": 0.035}, {"measurement": "glycan array binding signal (z-score)", "setting": "[6]", "result": 0.327}, {"measurement": "glycan array binding signal (z-score)", "setting": "[7]", "result": -0.284}, {"measurement": "glycan array binding signal (z-score)", "setting": "[8]", "result": -0.383}, {"measurement": "glycan array binding signal (z-score)", "setting": "[9]", "result": 1.24}, {"measurement": "glycan array binding signal (z-score)", "setting": "[10]", "result": -0.109}, {"measurement": "glycan array binding signal (z-score)", "setting": "[11]", "result": -0.657}, {"measurement": "glycan array binding signal (z-score)", "setting": "Neu5Ac(a2-6)GalNAc", "result": -0.004}, {"measurement": "glycan array binding signal (z-score)", "setting": "[12]", "result": -0.045}, {"measurement": "glycan array binding signal (z-score)", "setting": "[13]", "result": -0.025}, {"measurement": "glycan array binding signal (z-score)", "setting": "[14]", "result": 0.122}, {"measurement": "glycan array binding signal (z-score)", "setting": "[15]", "result": -0.479}, {"measurement": "glycan array binding signal (z-score)", "setting": "Neu5Ac(a2-8)Neu5Ac", "result": -0.027}, {"measurement": "glycan array binding signal (z-score)", "setting": "[16]", "result": 0.163}, {"measurement": "glycan array binding signal (z-score)", "setting": "[17]", "result": 0.431}, {"measurement": "glycan array binding signal (z-score)", "setting": "[18]", "result": 0.281}, {"measurement": "glycan array binding signal (z-score)", "setting": "[19]", "result": 0.25}, {"measurement": "glycan array binding signal (z-score)", "setting": "[20]", "result": -0.391}, {"measurement": "glycan array binding signal (z-score)", "setting": "[21]", "result": 0.219}]}
